# Laboratory results: the supplement of paper PMC9927326
# MIC of clinical C. albicans isolates, CLSI broth microdilution (ranges and time not stated); higher = less susceptible. Call: susceptible or wild type [S] / resistant or non-wild type [R] by CLSI breakpoints or epidemiological cut-offs; intermediate and dose-dependent carry no call here (the paper groups them with resistant). '<=' and '>=' mark each drug's lowest and highest value, inferred; the source prints them plain. Isolates are numbered anew.
# Experiments:
# Test in all cases: CLSI broth microdilution.
# voriconazole = compound: C[C@@H](c1ncncc1F)[C@](O)(Cn1cncn1)c1ccc(F)cc1F [voriconazole]
# posaconazole = compound: CC[C@@H]([C@H](C)O)n1ncn(-c2ccc(N3CCN(c4ccc(OC[C@@H]5CO[C@@](Cn6cncn6)(c6ccc(F)cc6F)C5)cc4)CC3)cc2)c1=O [posaconazole]
# anidulafungin = compound: CCCCCOc1ccc(-c2ccc(-c3ccc(C(=O)N[C@H]4C[C@@H](O)[C@@H](O)NC(=O)[C@@H]5[C@@H](O)[C@@H](C)CN5C(=O)[C@H]([C@@H](C)O)NC(=O)[C@H]([C@H](O)[C@@H](O)c5ccc(O)cc5)NC(=O)[C@@H]5C[C@@H](O)CN5C(=O)[C@H]([C@@H](C)O)NC4=O)cc3)cc2)cc1 [anidulafungin]
# amphotericin B = compound: C[C@@H]1[C@H](O)[C@@H](C)/C=C/C=C/C=C/C=C/C=C/C=C/C=C/[C@H](O[C@@H]2O[C@H](C)[C@@H](O)[C@H](N)[C@@H]2O)C[C@@H]2O[C@](O)(C[C@@H](O)C[C@@H](O)[C@H](O)CC[C@@H](O)C[C@@H](O)CC(=O)O[C@H]1C)C[C@H](O)[C@H]2C(=O)O [amphotericin B]
# flucytosine = compound: Nc1[nH]c(=O)ncc1F [flucytosine]
# caspofungin = compound: CC[C@H](C)C[C@H](C)CCCCCCCCC(=O)N[C@H]1C[C@@H](O)[C@@H](NCCN)NC(=O)[C@@H]2[C@@H](O)CCN2C(=O)[C@H]([C@H](O)CCN)NC(=O)[C@H]([C@H](O)[C@@H](O)c2ccc(O)cc2)NC(=O)[C@@H]2C[C@@H](O)CN2C(=O)[C@H]([C@@H](C)O)NC1=O [caspofungin]
# fluconazole = compound: OC(Cn1cncn1)(Cn1cncn1)c1ccc(F)cc1F [fluconazole]
# micafungin = compound: CCCCCOc1ccc(-c2cc(-c3ccc(C(=O)N[C@H]4C[C@@H](O)[C@@H](O)NC(=O)[C@@H]5[C@@H](O)[C@@H](C)CN5C(=O)[C@H]([C@H](O)CC(N)=O)NC(=O)[C@H]([C@H](O)[C@@H](O)c5ccc(O)c(OS(=O)(=O)O)c5)NC(=O)[C@@H]5C[C@@H](O)CN5C(=O)[C@H]([C@@H](C)O)NC4=O)cc3)no2)cc1 [micafungin]
# itraconazole = compound: CCC(C)n1ncn(-c2ccc(N3CCN(c4ccc(OCC5COC(Cn6cncn6)(c6ccc(Cl)cc6Cl)O5)cc4)CC3)cc2)c1=O [itraconazole]
Test System,MIC (voriconazole),MIC (posaconazole),MIC (anidulafungin),MIC (amphotericin B),MIC (flucytosine),MIC (caspofungin),MIC (fluconazole),MIC (micafungin),MIC (itraconazole)
"Candida albicans isolate 99 (Erg11p: E266D, Fur1p: WT, Tac1p: T885K,I558V,A430V,A377V,F189S,N174D,M170I,M170V,K87N)",≤ 0.008 mg/L [S],0.015 mg/L [S],≤ 0.015 mg/L [S],0.5 mg/L [S],≤ 0.06 mg/L [S],0.03 mg/L [S],0.25 mg/L [S],≤ 0.008 mg/L [S],≤ 0.015 mg/L [S]
"Candida albicans isolate 180 (Erg11p: E266D,G129A, Fur1p: WT, Tac1p: R869Q,L695F,I558V,A377V,F189S,M170V,L131I)",≤ 0.008 mg/L [S],0.015 mg/L [S],0.06 mg/L [S],0.5 mg/L [S],≤ 0.06 mg/L [S],0.03 mg/L [S],0.5 mg/L [S],≤ 0.008 mg/L [S],0.03 mg/L [S]
"Candida albicans isolate 361 (Erg11p: D153E, Fur1p: WT, Tac1p: N896S)",≤ 0.008 mg/L [S],0.015 mg/L [S],0.03 mg/L [S],0.25 mg/L [S],≤ 0.06 mg/L [S],0.03 mg/L [S],0.5 mg/L [S],0.015 mg/L [S],0.03 mg/L [S]
"Candida albicans isolate 330 (Erg11p: D153E, Fur1p: WT, Tac1p: N896S)",≤ 0.008 mg/L [S],0.015 mg/L [S],≤ 0.015 mg/L [S],0.25 mg/L [S],≤ 0.06 mg/L [S],0.015 mg/L [S],0.5 mg/L [S],0.015 mg/L [S],0.03 mg/L [S]
"Candida albicans isolate 252 (Erg11p: Y132H,T123I, Fur1p: R101C, Tac1p: WT)",0.25 mg/L,0.03 mg/L [S],≤ 0.015 mg/L [S],0.25 mg/L [S],0.5 mg/L [S],≤ 0.008 mg/L [S],4 mg/L,0.015 mg/L [S],0.12 mg/L [S]
"Candida albicans isolate 119 (Erg11p: E266D, Fur1p: WT, Tac1p: I558V,A377V,F189S,N174D,M170I,K87N)",≤ 0.008 mg/L [S],0.015 mg/L [S],0.03 mg/L [S],0.5 mg/L [S],≤ 0.06 mg/L [S],0.03 mg/L [S],0.5 mg/L [S],0.015 mg/L [S],0.03 mg/L [S]
"Candida albicans isolate 64 (Erg11p: WT, Fur1p: WT, Tac1p: I558V,A377V,F189S,N174D,M170I,K87N)",≤ 0.008 mg/L [S],0.015 mg/L [S],≤ 0.015 mg/L [S],0.5 mg/L [S],≤ 0.06 mg/L [S],0.015 mg/L [S],0.5 mg/L [S],0.015 mg/L [S],0.03 mg/L [S]
"Candida albicans isolate 150 (Erg11p: D153E, Fur1p: WT, Tac1p: N896S,I558V,A377V,F189S,N174D,M170I,K87N)",0.015 mg/L [S],0.06 mg/L [S],0.06 mg/L [S],0.25 mg/L [S],0.12 mg/L [S],0.06 mg/L [S],1 mg/L [S],0.015 mg/L [S],0.12 mg/L [S]
"Candida albicans isolate 5 (Erg11p: E266D, Fur1p: WT, Tac1p: C908Y,A377V,N174D,M170I,I109N,K87N)",≤ 0.008 mg/L [S],0.03 mg/L [S],≤ 0.015 mg/L [S],0.5 mg/L [S],≤ 0.06 mg/L [S],0.03 mg/L [S],0.5 mg/L [S],≤ 0.008 mg/L [S],0.03 mg/L [S]
"Candida albicans isolate 187 (Erg11p: V488I,E266D, Fur1p: G159V, Tac1p: N896S,A377V,F189S,N174D,M170I,K87N)",≤ 0.008 mg/L [S],0.015 mg/L [S],0.06 mg/L [S],0.25 mg/L [S],≤ 0.06 mg/L [S],0.06 mg/L [S],0.5 mg/L [S],0.015 mg/L [S],≤ 0.015 mg/L [S]
"Candida albicans isolate 240 (Erg11p: D153E, Fur1p: WT, Tac1p: N896S)",≤ 0.008 mg/L [S],0.03 mg/L [S],0.06 mg/L [S],0.5 mg/L [S],0.12 mg/L [S],0.03 mg/L [S],0.25 mg/L [S],0.015 mg/L [S],0.03 mg/L [S]
"Candida albicans isolate 82 (Erg11p: V488I,E266D, Fur1p: WT, Tac1p: N896S)",≤ 0.008 mg/L [S],0.03 mg/L [S],≤ 0.015 mg/L [S],0.5 mg/L [S],≤ 0.06 mg/L [S],0.015 mg/L [S],0.5 mg/L [S],0.015 mg/L [S],0.03 mg/L [S]
"Candida albicans isolate 14 (Erg11p: F145L,A114V, Fur1p: R101C, Tac1p: H263Y)",0.12 mg/L [S],0.25 mg/L [R],≤ 0.015 mg/L [S],0.5 mg/L [S],≤ 0.06 mg/L [S],0.03 mg/L [S],16 mg/L [R],0.015 mg/L [S],0.25 mg/L [R]
"Candida albicans isolate 112 (Erg11p: V488I,E266D, Fur1p: WT, Tac1p: N896S,I895T)",≤ 0.008 mg/L [S],0.03 mg/L [S],0.06 mg/L [S],0.5 mg/L [S],≤ 0.06 mg/L [S],0.03 mg/L [S],0.5 mg/L [S],0.015 mg/L [S],0.03 mg/L [S]
"Candida albicans isolate 213 (Erg11p: WT, Fur1p: WT, Tac1p: N896S,I558V,A377V,F189S,N174D,M170I,K87N)",≤ 0.008 mg/L [S],0.03 mg/L [S],0.03 mg/L [S],0.25 mg/L [S],≤ 0.06 mg/L [S],0.03 mg/L [S],0.5 mg/L [S],0.015 mg/L [S],0.06 mg/L [S]
"Candida albicans isolate 152 (Erg11p: G465S,Y132H, Fur1p: R101C, Tac1p: WT)",0.12 mg/L [S],0.015 mg/L [S],≤ 0.015 mg/L [S],0.5 mg/L [S],0.5 mg/L [S],0.03 mg/L [S],2 mg/L [S],0.015 mg/L [S],0.06 mg/L [S]
"Candida albicans isolate 84 (Erg11p: E266D, Fur1p: WT, Tac1p: N896S)",≤ 0.008 mg/L [S],0.015 mg/L [S],0.12 mg/L [S],0.5 mg/L [S],≤ 0.06 mg/L [S],0.06 mg/L [S],0.5 mg/L [S],≤ 0.008 mg/L [S],0.03 mg/L [S]
